We go through 2 molecules from patent publication US20160002318A1.

What all share (test): cell-based or functional assay
Assay [1] has as its target HA of influenza B virus B/Malaysia/2506/2004 (live virus) (influenza B virus B/Malaysia/2506/2004).
In assay [2] the target is HA of influenza B virus B/Florida/04/2006 (live virus) (influenza B virus B/Florida/04/2006).
Assay [3] deals with HA of influenza B virus B/Harbin/7/1994 (live virus) (influenza B virus B/Harbin/7/1994).
Assay [4] deals with HA of influenza B virus B/Brisbane/60/2008 (live virus) (influenza B virus B/Brisbane/60/2008).

B1: CR10051 (antibody, V domains shown)
VH: EVQLVQSGAEVKKPGASVELSCKASGDTFTNYHIHWVRQAPGQGLEWMGIINPSGGDTDYSQKFQGRVTLTRDRSTNTFYMKLASLRSEDTAVYYCATDESPGLLTGLRDYWYYYGMDVWGQGTTVTVS
VL: [in this place about 100 residues]SFGQGTKLEIK
As to B1, the HI titers in assay [1], in assay [2], in assay [3] and in assay [4] was above 50 µg/mL throughout. In assay [1], the VNA titers in µg/ml (*assay was done with 25 TCIDs) is 1.77 µg/mL. Further, the figures for the VNA titers in assay [2], in assay [3] and in assay [4] were 0.63 µg/mL, 0.28 µg/mL and 1.51 µg/mL, respectively.

B2: CR10049 (antibody, V domains shown)
VH: EVQLVESGGGLVQPGGSLRLSCAASGFTFSSYAMSWVRQAPGKGLEWVSRLSDESTTYYADSVKGRFTISRDNSKNTLYLQMNSLKADDTAIYYCAEDLGTVMDSYYYGMNVWGPGTTVTVS
VL: [in this place about 120 residues]
In the case of B2, the HI titers was 4.42 µg/mL in assay [1], 1.1 µg/mL in assay [2], above 50 µg/mL in assay [3] and 35.4 µg/mL in assay [4]. The molecule also gave a VNA titers in µg/ml (*assay was done with 25 TCIDs) in assay [1] of 25 µg/mL. Besides, the VNA titers in assay [2] was 1.3 µg/mL; in assay [3], 4.42 µg/mL; in assay [4] it was 35.4 µg/mL.
